# Data: paper PMC12820563
# Some of the results follow. The list includes weakly bound sequences.
# Biological target: T1, MBP-FoxP3dN (UniProt Q99JB6)
# T1 sequence: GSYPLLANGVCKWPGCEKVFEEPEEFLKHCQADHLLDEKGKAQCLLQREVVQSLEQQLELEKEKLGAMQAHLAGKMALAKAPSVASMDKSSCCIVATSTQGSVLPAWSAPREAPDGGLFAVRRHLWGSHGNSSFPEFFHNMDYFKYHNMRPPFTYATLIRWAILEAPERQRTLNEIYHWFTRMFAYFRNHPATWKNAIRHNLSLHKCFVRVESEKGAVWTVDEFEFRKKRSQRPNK
# Assay: PD-seq (MBP pull-down with sequencing)
# Conditions: 20 mM Tris-HCl pH 7.5, 100 mM NaCl, 1.5 mM MgCl2, 0.4 uM protein, 0.1 uM dsDNA library, 30 min, room temperature, amylose pull-down; high values mean tight binding; double strand, one strand shown
row,Sequence,binding signal (RPM ratio (pull-down/input))
1,GATGATTGTTCTCCCAGCTGATGAATTGGTGGTATCGAGTAAACAAATTTTCCTAATCTTTCTGTTCAAGCGCCATCTAC,1.23
2,GATGATTGTTCTCCCAGCTGATGAATTTTCGACCTCGAGTAAACAAATTTTCCTAATCTTTCTGTTCAAGCGCCATCTAC,0.289
3,GATGATTGTTCTCCCAGCTGATGAATTCGCAATTTCGAGTAAACAAATTTTCCTAATCTTTCTGTTCAAGCGCCATCTAC,1.92
4,GATGATTGTTCTCCCAGCTGATGAATTGCCAGAGTCGAGTAAACAAATTTTCCTAATCTTTCTGTTCAAGCGCCATCTAC,0.316
5,GATGATTGTTCTCCCAGCTGATGAATTAGAGTCGTCGAGTAAACAAATTTTCCTAATCTTTCTGTTCAAGCGCCATCTAC,0.544
6,GATGATTGTTCTCCCAGCTGATGAATTTGCTGAGTCGAGTAAACAAATTTTCCTAATCTTTCTGTTCAAGCGCCATCTAC,0.811
7,GATGATTGTTCTCCCAGCTGATGAATTACGTGGATCGAGTAAACAAATTTTCCTAATCTTTCTGTTCAAGCGCCATCTAC,0.457
8,GATGATTGTTCTCCCAGCTGATGAATTTCTATATTCGAGTAAACAAATTTTCCTAATCTTTCTGTTCAAGCGCCATCTAC,0.372
9,GATGATTGTTCTCCCAGCTGATGAATTGTTGCGCTCGAGTAAACAAATTTTCCTAATCTTTCTGTTCAAGCGCCATCTAC,2.84
10,GATGATTGTTCTCCCAGCTGATGAATTGGTTTTATCGAGTAAACAAATTTTCCTAATCTTTCTGTTCAAGCGCCATCTAC,1.42
11,GATGATTGTTCTCCCAGCTGATGAATTAGACAGGTCGAGTAAACAAATTTTCCTAATCTTTCTGTTCAAGCGCCATCTAC,0.291
12,GATGATTGTTCTCCCAGCTGATGAATTGGGGCCATCGAGTAAACAAATTTTCCTAATCTTTCTGTTCAAGCGCCATCTAC,0.982
13,GATGATTGTTCTCCCAGCTGATGAATTTCAAGTATCGAGTAAACAAATTTTCCTAATCTTTCTGTTCAAGCGCCATCTAC,0.413
14,GATGATTGTTCTCCCAGCTGATGAATTGTAGAGCTCGAGTAAACAAATTTTCCTAATCTTTCTGTTCAAGCGCCATCTAC,0.291
15,GATGATTGTTCTCCCAGCTGATGAATTAGTGTAATCGAGTAAACAAATTTTCCTAATCTTTCTGTTCAAGCGCCATCTAC,1.7
16,GATGATTGTTCTCCCAGCTGATGAATTTCCCCTGTCGAGTAAACAAATTTTCCTAATCTTTCTGTTCAAGCGCCATCTAC,0.2
17,GATGATTGTTCTCCCAGCTGATGAATTGAGCACTTCGAGTAAACAAATTTTCCTAATCTTTCTGTTCAAGCGCCATCTAC,0.657
18,GATGATTGTTCTCCCAGCTGATGAATTTGATGCTTCGAGTAAACAAATTTTCCTAATCTTTCTGTTCAAGCGCCATCTAC,3.44
19,GATGATTGTTCTCCCAGCTGATGAATTCCTCGAGTCGAGTAAACAAATTTTCCTAATCTTTCTGTTCAAGCGCCATCTAC,0.216
20,GATGATTGTTCTCCCAGCTGATGAATTAAGGTGGTCGAGTAAACAAATTTTCCTAATCTTTCTGTTCAAGCGCCATCTAC,0.367

row,Sequence,binding signal (RPM ratio (pull-down/input))
1,GATGATTGTTCTCCCAGCTGATGAATTCGCGTGTTCGAGTAAACAAATTTTCCTAATCTTTCTGTTCAAGCGCCATCTAC,1.44
2,GATGATTGTTCTCCCAGCTGATGAATTAGAGGTATCGAGTAAACAAATTTTCCTAATCTTTCTGTTCAAGCGCCATCTAC,0.573
3,GATGATTGTTCTCCCAGCTGATGAATTCTTTCTGTCGAGTAAACAAATTTTCCTAATCTTTCTGTTCAAGCGCCATCTAC,0.203
4,GATGATTGTTCTCCCAGCTGATGAATTATACAGATCGAGTAAACAAATTTTCCTAATCTTTCTGTTCAAGCGCCATCTAC,0.39
5,GATGATTGTTCTCCCAGCTGATGAATTCATTTACTCGAGTAAACAAATTTTCCTAATCTTTCTGTTCAAGCGCCATCTAC,3.24
6,GATGATTGTTCTCCCAGCTGATGAATTCACTCCGTCGAGTAAACAAATTTTCCTAATCTTTCTGTTCAAGCGCCATCTAC,0.245
7,GATGATTGTTCTCCCAGCTGATGAATTATCATCCTCGAGTAAACAAATTTTCCTAATCTTTCTGTTCAAGCGCCATCTAC,0.437
8,GATGATTGTTCTCCCAGCTGATGAATTCCCGGTCTCGAGTAAACAAATTTTCCTAATCTTTCTGTTCAAGCGCCATCTAC,0.253
9,GATGATTGTTCTCCCAGCTGATGAATTCCAGGGCTCGAGTAAACAAATTTTCCTAATCTTTCTGTTCAAGCGCCATCTAC,0.233
10,GATGATTGTTCTCCCAGCTGATGAATTCACGGGATCGAGTAAACAAATTTTCCTAATCTTTCTGTTCAAGCGCCATCTAC,0.217
11,GATGATTGTTCTCCCAGCTGATGAATTGGCGACATCGAGTAAACAAATTTTCCTAATCTTTCTGTTCAAGCGCCATCTAC,0.744
12,GATGATTGTTCTCCCAGCTGATGAATTGCCCTCGTCGAGTAAACAAATTTTCCTAATCTTTCTGTTCAAGCGCCATCTAC,0.459
13,GATGATTGTTCTCCCAGCTGATGAATTGTAGGCGTCGAGTAAACAAATTTTCCTAATCTTTCTGTTCAAGCGCCATCTAC,0.778
14,GATGATTGTTCTCCCAGCTGATGAATTACCGTCTTCGAGTAAACAAATTTTCCTAATCTTTCTGTTCAAGCGCCATCTAC,0.447
15,GATGATTGTTCTCCCAGCTGATGAATTGCTCGTGTCGAGTAAACAAATTTTCCTAATCTTTCTGTTCAAGCGCCATCTAC,0.583
16,GATGATTGTTCTCCCAGCTGATGAATTAATGGAGTCGAGTAAACAAATTTTCCTAATCTTTCTGTTCAAGCGCCATCTAC,0.304
17,GATGATTGTTCTCCCAGCTGATGAATTCACACTATCGAGTAAACAAATTTTCCTAATCTTTCTGTTCAAGCGCCATCTAC,0.504
18,GATGATTGTTCTCCCAGCTGATGAATTTGCACATTCGAGTAAACAAATTTTCCTAATCTTTCTGTTCAAGCGCCATCTAC,0.843
19,GATGATTGTTCTCCCAGCTGATGAATTTTCGCTGTCGAGTAAACAAATTTTCCTAATCTTTCTGTTCAAGCGCCATCTAC,0.346
20,GATGATTGTTCTCCCAGCTGATGAATTTAGCCTTTCGAGTAAACAAATTTTCCTAATCTTTCTGTTCAAGCGCCATCTAC,5
